Measurements: PubChem BioAssay AID1745853 (National Center for Advancing Translational Sciences (NCATS), 2022)
The list shows a part of the results. Shown are side measurements of this screen, not its main read-out; they come without a call.

Columns and labels:
Test in all cases: Primary Screen for Target Class Profiling of Small Molecule Inhibitors of Methyltransferases
[1] = biological target: Glycine N-methyltransferase (Homo sapiens) (UniProt Q14749); conditions: purified enzyme, MTase-Glo SAH luminescence; measured here: GNMT inhibition; at 40 µM; stronger effect = lower value
Procedure, shortened: (§1)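 Each enzyme was assayed with SAM and its substrate. SAH formation detected by MTase-Glo luminescence; single-point 40 uM screen[…].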

[2] = biological target: Guanidinoacetate N-methyltransferase (Homo sapiens) (UniProt Q14353); conditions: purified enzyme, MTase-Glo SAH luminescence; measured here: GAMT inhibition; at 40 µM; stronger effect = lower value
Procedure, shortened: as §1

[3] = biological target: Histamine N-methyltransferase (Homo sapiens) (UniProt P50135); conditions: purified enzyme, MTase-Glo SAH luminescence; measured here: HNMT inhibition; at 40 µM; stronger effect = lower value
Procedure, shortened: as §1

[4] = biological target: Nicotinamide N-methyltransferase (Homo sapiens) (UniProt P40261); conditions: purified enzyme, MTase-Glo SAH luminescence; measured here: NNMT inhibition; at 40 µM; stronger effect = lower value
Procedure, shortened: as §1

[5] = biological target: Phenylethanolamine N-methyltransferase (Homo sapiens) (UniProt P11086); conditions: purified enzyme, MTase-Glo SAH luminescence; measured here: PNMT inhibition; at 40 µM; stronger effect = lower value
Procedure, shortened: as §1
% is scaled to controls: 0 for no effect and ±100 for the full control effect.

Row | SMILES | activity change, negative = inhibition [1] [%] | activity change, negative = inhibition [2] [%] | activity change, negative = inhibition [3] [%] | activity change, negative = inhibition [4] [%] | activity change, negative = inhibition [5] [%]
1 | CN1CCCCCCN(C(=O)Cc2cccc(F)c2)[C@H]2CCC[C@H]2C1=O | -0.35 | -0.437 | 2.15 | -5.82 | -1.12
2 | CCC(C)NC(=O)c1ccc2c(=O)n(C)c3nnc(SCC(=O)Nc4cccc(C)c4)n3c2c1 (stereo unspecified) | 2.23 | 3.68 | 0.409 | 1 | 1.94
3 | CC(C)CCNC(=O)C1(C)Cn2nc(C(=O)NCc3ccc(F)cc3)cc2C(=O)N1C (stereo unspecified) | -0.612 | 4.31 | -1.85 | 2.62 | 0.775
4 | COc1ccc(Cn2c(=O)c3ccccc3n3c(-c4ccc(F)c(F)c4)nnc23)cc1 | -3.12 | 0.512 | 2.14 | 1.86 | -1.56
5 | Cn1c2c(c3ccccc31)C(C(=O)NCc1ccccc1)N(c1ccc(Cl)cc1)C(=O)CS2 (stereo unspecified) | 9.76 | 0 | 6.27 | 4.76 | 6.91
6 | CN(C)C[C@@H]1CN(S(C)(=O)=O)C[C@H]1NC(=O)CC1CCN(C)CC1 | -1.92 | -1.81 | 0.799 | -1.7 | -5.5
7 | COC[C@H]1NC(=O)CC[C@H]1C(=O)NCCC1=CCCCC1 | -1.05 | 0.187 | 0.732 | 4.43 | -3.14
8 | COc1cc(/C=C/C(=O)N2CCC=CC2=O)cc(OC)c1OC | – | -27 | – | -8.05 | 3.49
9 | O=C(c1ccccn1)c1cnn2c(-c3ccncc3)ccnc12 | -3.36 | 0.841 | 3.95 | -13 | 1.31
10 | CCn1cc(CNc2ccc(-c3ccccc3OC)nn2)cn1 | -5.81 | -1.32 | -1.13 | 0.127 | 3.34
11 | O=C(O)CCn1ncc2cc(OC3CCN(C(=O)Oc4ccccc4Cl)CC3)ccc21 | -18.7 | -9.67 | -8.85 | -12 | 72.9
12 | CCc1nc(-c2cccc(C)c2)c(-c2ccnc(NC(=O)c3ccccc3)c2)s1 | 7.36 | -0.627 | 6.37 | -23.5 | -5.31
13 | Cc1cc(C(=O)N[C@H]2[C@H](O)[C@H](O)C[C@@H]2c2ccc(N3CCOCC3)nc2)n(C)n1 | -5.26 | -7.49 | -3.82 | -9.06 | -9.41
14 | CCC(=O)N1CCc2sc(C(=O)NCc3ccc4c(c3)OCO4)cc2C1 | -8.95 | -8.25 | -6.39 | -12.2 | -6.61
15 | O=C1Cc2ccccc2N1 | – | 11.4 | – | -5.84 | 1.67
16 | CC(C(=O)NCc1ccc(F)cc1)n1ccc2cc(S(=O)(=O)N3CCCC3)ccc21 (stereo unspecified) | 4.17 | 0 | -0.326 | 1.77 | 0.485
17 | Cc1ccc2c(c1)N(S(=O)(=O)c1ccc3[nH]c4c(c3c1)CCCC4)CCO2 | 14.2 | 3.28 | 9.86 | 1.35 | 5.83
18 | CC(=O)Nc1cccc(-c2ncc3c(n2)OCCN(CC2CC2)C3=O)c1 | -10.5 | -7.66 | -4 | -9.32 | -6.1
19 | O=C1COCCN1C1CCN(Cc2ccc(F)cc2)CC1 | -2.08 | -5.23 | -4.01 | -6.7 | -6.42
20 | COc1ccc([C@H]2OC[C@H]3[C@@H]2CO[C@@H]3c2ccc(O[C@@H]3O[C@H](CO)C(O)[C@H](O)[C@H]3O)c(OC)c2)cc1OC (stereo partly specified) | 2.9 | 6.64 | 12.1 | -3.8 | 7.89
